Measurements from the antibiotic and cytotoxicity screens of Wong et al. (2023).
Some of the results follow.

Assays:
[1] = system: HSkMC (human skeletal muscle cells); test: cytotoxicity call (relative viability < 0.9); conditions: 10 µM
[2] = system: S. aureus RN4220; test: growth inhibition call (relative growth <= 0.2); conditions: 50 µM

SMILES	cytotoxicity call [1]	growth inhibition call [2]
C[C@@H]1CN([C@H](C)CO)C(=O)c2cccc(NC(=O)c3nc4ccccc4s3)c2O[C@@H]1CN(C)Cc1ccc(C(=O)Nc2ccccc2N)cc1	inactive	inactive
COc1ccc(NC(=O)Nc2ccc3c(c2)CC(=O)N([C@@H](C)CO)C[C@@H](C)[C@H](CN(C)S(=O)(=O)c2cn(C)cn2)O3)cc1	inactive	inactive
Cc1noc(C)c1S(=O)(=O)Nc1ccc2c(c1)C(=O)N([C@H](C)CO)C[C@@H](C)[C@H](CN(C)Cc1ccccc1)OCCCC[C@H](C)O2	inactive	inactive
COc1ccc(CN(C)C[C@H]2Oc3ccc(NC(=O)Nc4cccc5ccccc45)cc3C(=O)N([C@H](C)CO)C[C@H]2C)cc1	inactive	inactive
[N-]=[N+]=Nc1ccccc1C[C@@]1(C(=O)NCc2ccccc2)N=C(c2ccc(OCCCO)cc2)O[C@@H]1c1ccccc1	inactive	inactive
C[C@H](CO)N1C[C@H](C)[C@H](CN(C)Cc2ccncc2)OCCCC[C@H](C)Oc2ccc(NC(=O)Nc3ccccc3)cc2C1=O	inactive	inactive
O=C(C[C@@H]1C[C@H]2c3cc(NC(=O)c4ccc5c(c4)OCO5)ccc3O[C@H]2[C@@H](CO)O1)NCc1ccc(Oc2ccccc2)cc1	inactive	inactive
C[C@@H]1CN([C@@H](C)CO)S(=O)(=O)c2ccc(C#CCC3CCCC3)cc2O[C@H]1CN(C)C(=O)c1cnccn1	inactive	inactive
C[C@H](CO)N1C[C@H](C)[C@@H](CN(C)Cc2ccc(Oc3ccccc3)cc2)Oc2ccc(NS(=O)(=O)c3ccc(Cl)cc3)cc2C1=O	inactive	inactive
C[C@@H]1CN([C@@H](C)CO)C(=O)Cc2cc(NC(=O)Nc3ccc(C(F)(F)F)cc3)ccc2O[C@H]1CN(C)C(=O)Nc1ccc(F)cc1	inactive	inactive
C[C@@H]1CN([C@@H](C)CO)C(=O)Cc2cc(NC(=O)C3CC3)ccc2O[C@H]1CN(C)C(=O)Nc1ccc2c(c1)OCO2	inactive	inactive
C[C@H](CO)N1C[C@H](C)[C@@H](CN(C)S(=O)(=O)c2ccccc2F)Oc2ncc(C#Cc3ccccc3)cc2C1=O	inactive	inactive
NCc1cccc2c1OCC2	inactive	inactive
COc1ccc(NC(=O)N(C)C[C@H]2OCCCC[C@@H](C)Oc3ccc(NS(=O)(=O)c4cccs4)cc3C(=O)N([C@H](C)CO)C[C@H]2C)cc1	inactive	inactive
COc1ccc(S(=O)(=O)Nc2ccc3c(c2)C(=O)N([C@H](C)CO)C[C@H](C)[C@@H](CN(C)C(=O)Nc2ccc4c(c2)OCO4)OCCCC[C@@H](C)O3)cc1	inactive	inactive
O=c1[nH]cc(Nc2ccccc2)c(=O)[nH]1	inactive	inactive
C[C@@H]1CN([C@H](C)CO)C(=O)c2cc(NC(=O)C3CC3)ccc2O[C@@H]1CN(C)Cc1ccc(Oc2ccccc2)cc1	inactive	inactive
COc1cc(CO)cc(I)c1O[C@H]1C=C(C(=O)NCCO)C[C@@H](NCc2ccc(F)cc2)[C@@H]1O	inactive	inactive
C[C@H](CO)N1C[C@H](C)[C@@H](CN(C)C(=O)Nc2ccc(F)cc2)OCCCC[C@H](C)Oc2ccc(NC(=O)C3CCCCC3)cc2C1=O	inactive	inactive
O=Cc1ccc[nH]1	inactive	inactive
C[C@@H]1CN([C@H](C)CO)C(=O)c2cc(NC(=O)CCCN(C)C)ccc2O[C@@H](C)CCCCO[C@H]1CN(C)S(=O)(=O)c1cn(C)cn1	inactive	inactive
CN(C)CCC=C1c2ccccc2COc2ccc(CC(=O)O)cc21.Cl	inactive	active
COCC#Cc1ccc([C@H]2[C@@H](CO)N3C(=O)CN(C(=O)C4CCOCC4)C[C@@H]23)cc1	inactive	inactive
O=C(O)CCN1CCCC1=O	inactive	inactive
C[C@@H]1CN([C@H](C)CO)C(=O)c2cc(C#Cc3cccnc3)cnc2O[C@H]1CN(C)S(=O)(=O)c1ccccc1F	inactive	inactive
C[C@H](CO)N1C[C@H](C)[C@H](CN(C)S(=O)(=O)c2ccc(Cl)cc2)Oc2ccc(NC(=O)Cn3cnnn3)cc2CC1=O	inactive	inactive
C[C@H]1CCCCO[C@@H](CN(C)C(=O)Nc2ccc3c(c2)OCO3)[C@@H](C)CN([C@@H](C)CO)C(=O)c2cc(NC(=O)Nc3ccc(C(F)(F)F)cc3)ccc2O1	inactive	inactive
CCNC(=S)NCC1CC1	inactive	inactive
